Read counts are not given, so values of variants with three or more changes are uncertain.

B1: CPEB3 Ribozyme (parent)
chain: UAACAGGGGGCCACAGCAGAAGCGUUCACGUCGCAGCCCCUGUCAGAUUCUGGUGAAUCUGCGAAUUCUGCUGUAUAUCUC

The data set covers variants of B1. Put plainly: self-cleavage, relative activity (ratio to wild type); higher = more cleavage; in vitro, sequencing. The method, boiled down:
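After error-prone PCR and barcoding, CPEB3 ribozyme mutant libraries were transcribed with T7 RNA polymerase at 37°C for 5 hours, then given 15 min with DNase I before an EDTA stop, and they cleaved during both steps. Reverse transcription with template switching preceded Illumina sequencing. Relative activity divides a variant's cleaved/total read fraction by the unmutated ribozyme's. At least 5 reads were required per variant, and three batches were averaged.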
A15U A20U U60C U78C: the self-cleavage was determined as 0.2.

For C17G A20G A47G U60A, the self-cleavage was determined as 0.02. The value for A15U A28C A57G G61C U66C was 0.11; that for A15U U60A U66A was 0.18. The value for A15U G52A U69C was 0.21; that for G16A A20G U43C was 0.26; that for G16C U41A A45G U69C U80G was 0.16. Under A15U A18U A47G U72C stands 0.13. Take G16A C50U A56U U60C: the self-cleavage was 0.08. The value for A15U U26A U69A was 0.19. On to A15G U41C G52U A57U U60C, for which the self-cleavage was 0.12. Under C17G G24A U60C U78C stands 0.28. Regarding A15U C27U A35U A64G, the self-cleavage stood at 0.05. For the variant A15U A20G U41C U49A G61C C62U U66C, the self-cleavage was determined as 0.06. Under A15G U41C U49C A56U U72C stands 0.24; under G16U A47G A77U C79A, 0.35.

G16U G36C U43G U51C: the self-cleavage was 0.13. Under A15U U43C U60C G70C U76C stands 0.08. The value for A15U U60G U72C was 0.16; that for A15U G19A G30A A35U A56G was 0.05; that for A15U A35G U41C U80A was 1.28. For G16U C23U U25C C32U U60A A65U U78C, the self-cleavage is 0.04. Consider G16C U41A U69A, for which the self-cleavage was 0.13. The value for A15U U43A A45C C68A U69C was 0.06; that for A15G U54C U80C was 0.95. G16A A35U C68G: the self-cleavage was found to be 0.12. Turning to G16A G30A U43C A45U A57G U74C, the self-cleavage was 0.16. The value for A15G U41G A57G was 0.39; that for A15U U41A U76C A77G was 0.18; that for A15U U41C A45U U78C was 0.2.

Regarding G16A U48C A56G, the self-cleavage was found to be 0.13. Under G16A U48C A64G stands 0.18.

Regarding A15U A18G A21G U60C C62G U72C, the self-cleavage was found to be 0.11. Consider A15U C29A U67C, for which the self-cleavage was 0.03. In the case of A15U U43C U67C, the self-cleavage is 0.16. Under A15U A18U A35U A64G stands 0.07; under A15U U43C U58C U67C, 0.08; under A15G U60A U69A U78C, 0.16. The value for G16C U48A A75U was 0.06; that for A15G U43C A45U U80C was 0.14; that for A15G U60A U67C was 0.26. With A15G U60A U67A, the self-cleavage is 0.15. Regarding A15U A21G A35U U58C, the self-cleavage is 0.1.

For the variant G16U A28C A64G, the self-cleavage was determined as 0.16. The value for C17A U41C U76C A77G was 0.35. The value for A15U A21U U80C was 0.24; that for G16C A28G U31C U60C was 0.18. The value for C17A U25C A35U U54A was 0.13; that for A15G U43A A45U U51A A65G was 0.11. On to G16C U25A G53U A75C U76C, for which the self-cleavage amounted to 0.46. The value for G16C U49C U80C was 0.29; that for A15U A18G C32A G33A A57G A64G was 0.13.

Consider A15U A21G A56G C71U, for which the self-cleavage was determined as 0.35.

In the case of A15G U41C U51G, the self-cleavage amounted to 0.58. The value for A15U U25C U43C U78C was 0.13. Under A15U A21G U76C stands 0.22; under G16A A21G A35G A56U, 0.17. With A15U U26C G70A, the self-cleavage came to 0.11. Turning to A15U C38U A45G A56G U78C, the self-cleavage was found to be 0.33. Under G16U A20G G52A stands 0.46; under A15U U43A A47G A57G C62A U69C U76C, 0.2; under G16U U31C A47G, 0.18.

For the variant A15U G19A G24A A45C U74A, the self-cleavage stood at 0.07.

In the case of A15U A28G A57G, the self-cleavage is 0.2. Under G16C A75U U78A stands 0.19; under G16A A21G U25C C81U, 1.32. Take A15U A18G U76C A77U: the self-cleavage was found to be 0.43. Under A15U G33A U80C stands 0.09. Take A15G U43C U66A: the self-cleavage is 0.23. The value for C17A A21G U54G was 0.19; that for G16U C38A U66C U80A was 0.15. For the variant A15U C39G A45C U69A, the self-cleavage was 0. The value for A15U U26A A28C was 0.13; that for A15U A28C U80C was 0.54; that for A15U A18U U31A C32U C37G U54A A75G was 0.14. With C17A A35C U49A U58A, the self-cleavage is 0.14. The value for A15U A18G A47G U51C U54C was 0.62; that for A15U U25C A28G C44U U78C was 0.08. The value for A15U U54C A64G was 0.27; that for A15U U41A U51C was 0.18; that for A15U A18G G55U U78C was 0.2. Under G16C U49C A65G stands 0.15; under A15U U43G U58A C59U C79A, 0.03. Consider G16U U25C A57G A64U, for which the self-cleavage amounted to 0.08. Turning to G16A U67C A77G, the self-cleavage worked out at 0.06. Under A15U U51C U58A G73A stands 0.1.

With C17G A20G U26C U43C G53A, the self-cleavage worked out at 0. In the case of A15U A18U U25C A47G U51A A65G A75U, the self-cleavage amounted to 0.16.

A15G U43C A56C G70C: the self-cleavage turned out to be 0.02. Under A15U A18G U78C stands 0.15; under A15U A21G U25C U72G, 0.05. Regarding A15G U41C U54C A75U A77G, the self-cleavage stood at 0.94. The value for G16A U31A A77G was 0.09. The value for A15U A20G U43C U58C G73A C79U C81U was 0.05.

With C17A U25C U41G U54C U60A A64G U67C, the self-cleavage is 0.05. Under A15U A35U U43A G53A A56G A64U stands 0.12. The value for A15U A18G G22C was 0.27; that for A15G U49A U54A U76G was 0.48. The value for G16A A21G A47G U54C G63U was 0.08; that for G16A G46U A57G was 0.33; that for A15G U43A A64U was 0.47.

Turning to A15U G19U U51C U67G, the self-cleavage is 0.07.

As for A15U A18U G24C U72A, the self-cleavage turned out to be 0.17. The value for A15U A21G G42A U43A A45G A47G A56U was 0.03; that for A15U U43C A45G was 0.21. Under A15U C34A U49A A56G stands 0.18; under C17A U26G A35G, 0.07; under A15U U51A A64U U74A, 0.27. On to A15G U41C U49C U69C, for which the self-cleavage was 0.12. Under A15U A18G U25C A64G U67C stands 0.12; under A15U A20U U31A G33A U54C U69C U80A, 0.07; under G16A C34U U69C, 0.1. For the variant A15G U43C U67A, the self-cleavage was determined as 0.19. Under A15U U49C U51C stands 0.16; under A15U U54C U78A, 0.61; under A15U U31A U54C, 0.33. Under A15U A18G A35G stands 0.92. For A15U A28U U48C, the self-cleavage came to 0.43. The value for A15U A47G U54C C79A was 0.79. Under A15U U26C U66C stands 0.27; under A15U A35G A47U U78A, 1.25; under A15U A18G U25C A57G U60A A77G U78C, 0.08. Under A15U U48C A56G U58A U60C U74A U80A stands 0.09; under A15U A65U U67C U80C, 0.15; under C17G A18G A35G U41A C44G G53U, 0.17. For the variant A15U G61A A64G U80C, the self-cleavage was 0.12.

Turning to A15U A20G U25C C40U, the self-cleavage worked out at 0.23. Regarding A15U U51C A56G, the self-cleavage came out at 0.46. The value for A15U C29U U54A U60C U66C was 0.1; that for A15U A18G A20G C34U A65G U67A was 0.06. The value for A15U A18G U25C was 0.4; that for A15U A18G A57G was 0.28; that for G16A G36U U60C was 0.05. Under A15U U43C U74C stands 0.26.

G16U A20U A56U: the self-cleavage came to 0.1. For the variant A15U U48C U60A, the self-cleavage worked out at 0.17. Take A15U U51A U69A: the self-cleavage came out at 0.43. Under A15G U43A U51A A65G stands 0.3. The value for A15U G24A C39U was 0.19; that for G16U U51A C62U U67C U74C was 0.14.

In the case of A15U A18G A20U A64G, the self-cleavage amounted to 0.21. Take G16A A20U A28U G42U: the self-cleavage is 0.11. Under A15G U43G U78A stands 0.32; under A15U U31C U51C U72A, 0.25. Take A15G U49A U54C A56U: the self-cleavage is 0.83.

Regarding A15U A20G U43A U60A G73U, the self-cleavage worked out at 0.22. Under C17G A35G C59U A75U U80C stands 0.36; under G16A C23A U80C, 0.42; under G16U C17G A35C C71U U78C, 0.06. The value for A15U A64C A77U was 0.19. The value for C17A U51C U60C was 0.12; that for A15U A28G U43A U74A was 0.39; that for A15U C34G U41A U67C was 0.04. Turning to A15G U43G A56U, the self-cleavage was found to be 0.06. On to A15U U51C A56C U72C, for which the self-cleavage came to 0.33. The value for C17G C38A U43C was 0.08; that for A15U A28G C34U A45U A77G U78A was 0.06; that for A15U A56G U60C was 0.14. Under A15U A21U U54C U58C A65G stands 0.05; under A15G U43G U76C, 0.33; under A15U U25C U31A U51C U54A U76C, 0.08. Under A15G U48C A57G U60C U66C stands 0.3; under A15U U31C U41C U43A A65G U78C, 0.08; under C17A U43C A56U U80C, 0.05. As to G16U U41C G52A U69G, the self-cleavage came out at 0.22. As to A15U G19U U54C, the self-cleavage amounted to 0.09. The value for C17A U49A U58A U78C was 0.12.

For the origin of these results see the RNAGym collection of RNA variant scans (doi:10.1093/nar/gkz1192).
